Test results reported in the supplement of paper PMC8728848.
This is one part of the list.

Tests used:
Assay in all cases: glycan array binding signal (z-score within array); higher = stronger binding
Conditions in all cases: glycan notation: IUPAC condensed, linker removed
[1] = molecular target: Gal(b1-4)GlcNAc(b1-3)Gal(b1-4)GlcNAc(b1-3)[Gal(b1-4)GlcNAc(b1-3)Gal(b1-4)GlcNAc(b1-6)]GalNAc
How it was run: (§1)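 The Consortium for Functional Glycomics database supplied 3228 glycan arrays, of which those lacking an available protein sequence were dropped. The binding signal, a within-array Z-score, was averaged across arrays of the same protein sequence and across linkers. Negative scores can be read as non-binding.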

[2] = molecular target: Gal(b1-4)GlcNAc(b1-3)Gal(b1-4)GlcNAc(b1-6)[Gal(b1-3)]GalNAc
How it was run: as §1

[3] = molecular target: Gal(b1-4)GlcNAc(b1-3)Gal(b1-4)[Fuc(a1-3)]GlcNAc(b1-3)Gal(b1-4)[Fuc(a1-3)]GlcNAc
How it was run: as §1

[4] = molecular target: Gal(b1-4)GlcNAc(b1-3)GalNAc
How it was run: as §1

[5] = molecular target: Gal(b1-4)GlcNAc(b1-3)[Fuc(a1-3)GlcNAc(b1-6)]Gal(b1-4)Glc
How it was run: as §1

[6] = molecular target: Gal(b1-4)GlcNAc(b1-3)[Gal(b1-4)GlcNAc(b1-6)]Gal(b1-4)GlcNAc
How it was run: as §1

[7] = molecular target: Gal(b1-4)GlcNAc(b1-3)[GlcNAc(b1-6)]Gal(b1-4)GlcNAc
How it was run: as §1

[8] = molecular target: Gal(b1-4)GlcNAc(b1-6)Gal(b1-4)GlcNAc
How it was run: as §1

[9] = molecular target: Gal(b1-4)GlcNAc(b1-6)GalNAc
How it was run: as §1

[10] = molecular target: Gal(b1-4)GlcNAc(b1-6)[Gal(b1-3)]GalNAc
How it was run: as §1

[11] = molecular target: Gal(b1-4)GlcNAc(b1-6)[Gal(b1-4)GlcNAc(b1-3)]GalNAc
How it was run: as §1

[12] = molecular target: Gal(b1-4)GlcNAc6P
How it was run: as §1

[13] = molecular target: Gal(b1-6)Gal
How it was run: as §1

[14] = molecular target: Gal3S(b1-3)GalNAc
How it was run: as §1

[15] = molecular target: Gal3S(b1-3)GlcNAc
How it was run: as §1

[16] = molecular target: Gal3S(b1-3)[Fuc(a1-4)]GlcNAc
How it was run: as §1

[17] = molecular target: Gal3S(b1-4)Glc
How it was run: as §1

[18] = molecular target: Gal3S(b1-4)Glc6S
How it was run: as §1

[19] = molecular target: Gal3S(b1-4)GlcNAc
How it was run: as §1

[20] = molecular target: Gal3S(b1-4)[Fuc(a1-3)]Glc6S
How it was run: as §1

[21] = molecular target: Gal3S(b1-4)[Fuc(a1-3)]GlcNAc
How it was run: as §1

[22] = molecular target: Gal3S(b1-4)[Fuc(a1-3)]GlcNAc6S
How it was run: as §1

[23] = molecular target: Gal3S4S(b1-4)GlcNAc
How it was run: as §1

[24] = molecular target: Gal3S6S(b1-4)GlcNAc
How it was run: as §1

[25] = molecular target: Gal3S6S(b1-4)GlcNAc6S
How it was run: as §1

[26] = molecular target: Gal4S(b1-4)GlcNAc
How it was run: as §1

[27] = molecular target: Gal4S6S(b1-4)GlcNAc
How it was run: as §1

[28] = molecular target: Gal6P(b1-4)GlcNAc
How it was run: as §1

[29] = molecular target: Gal6S(b1-3)GlcNAc
How it was run: as §1

[30] = molecular target: Gal6S(b1-3)GlcNAc6S
How it was run: as §1

[31] = molecular target: Gal6S(b1-4)Glc
How it was run: as §1

[32] = molecular target: Gal6S(b1-4)Glc6S
How it was run: as §1

[33] = molecular target: Gal6S(b1-4)GlcNAc
How it was run: as §1

[34] = molecular target: Gal6S(b1-4)GlcNAc6S
How it was run: as §1

[35] = molecular target: GalNAc(a1-3)Gal
How it was run: as §1

[36] = molecular target: GalNAc(a1-3)GalNAc
How it was run: as §1

[37] = molecular target: GalNAc(a1-3)GalNAc(b1-3)Gal(a1-4)Gal(b1-4)Glc
How it was run: as §1

[38] = molecular target: GalNAc(a1-3)GalNAc(b1-3)Gal(a1-4)Gal(b1-4)GlcNAc
How it was run: as §1

[39] = molecular target: GalNAc(b1-3)Gal
How it was run: as §1

[40] = molecular target: GalNAc(b1-3)Gal(a1-4)Gal(b1-4)GlcNAc
How it was run: as §1

[41] = molecular target: GalNAc(b1-3)Gal(a1-4)Gal(b1-4)GlcNAc(b1-3)Gal(b1-4)Glc
How it was run: as §1

[42] = molecular target: GalNAc(b1-3)Gal(a1-6)Gal(b1-4)Glc
How it was run: as §1

[43] = molecular target: GalNAc(b1-3)GalNAc
How it was run: as §1

[44] = molecular target: GalNAc(b1-3)GlcNAc
How it was run: as §1

[45] = molecular target: GalNAc(b1-4)Gal(b1-4)Glc
How it was run: as §1

[46] = molecular target: GalNAc(b1-4)GlcNAc
How it was run: as §1

[47] = molecular target: GalNAc(b1-4)GlcNAc(b1-2)Man
How it was run: as §1

[48] = molecular target: GalNAc(b1-4)GlcNAc(b1-2)Man(a1-3)[GalNAc(b1-4)GlcNAc(b1-2)Man(a1-6)]Man(b1-4)GlcNAc(b1-4)GlcNAc
How it was run: as §1

[49] = molecular target: GalNAc(b1-4)GlcNAc(b1-3)GalNAc(b1-4)GlcNAc
How it was run: as §1

[50] = molecular target: GalNAc(b1-4)GlcNAc6S
How it was run: as §1

[51] = molecular target: GalNAc(b1-6)GalNAc
How it was run: as §1

[52] = molecular target: GalNAc3S(b1-4)GlcNAc
How it was run: as §1

[53] = molecular target: GalNAc3S(b1-4)GlcNAc3S
How it was run: as §1

[54] = molecular target: GalNAc3S(b1-4)[Fuc(a1-3)]GlcNAc
How it was run: as §1

[55] = molecular target: GalNAc4S6S(b1-4)GlcNAc
How it was run: as §1

[56] = molecular target: GalNAc6S(b1-4)GlcNAc
How it was run: as §1

[57] = molecular target: Glc(a1-4)Glc
How it was run: as §1

[58] = molecular target: Glc(a1-4)Glc(a1-4)Glc(a1-4)Glc
How it was run: as §1

[59] = molecular target: Glc(a1-6)Glc(a1-6)Glc
How it was run: as §1

[60] = molecular target: Glc(a1-6)Glc(a1-6)Glc(a1-6)Glc
How it was run: as §1

[61] = molecular target: Glc(b1-4)Glc
How it was run: as §1

[62] = molecular target: Glc(b1-6)Glc
How it was run: as §1

[63] = molecular target: GlcA(b1-3)Gal
How it was run: as §1

[64] = molecular target: GlcA(b1-3)GlcNAc
How it was run: as §1

[65] = molecular target: GlcA(b1-6)Gal
How it was run: as §1

[66] = molecular target: GlcA3S(b1-3)Gal(b1-4)GlcNAc(b1-2)Man
How it was run: as §1

[67] = molecular target: GlcA3S(b1-3)Gal(b1-4)GlcNAc(b1-3)Gal(b1-4)Glc
How it was run: as §1

[68] = molecular target: GlcNAc(a1-3)Gal(b1-4)GlcNAc
How it was run: as §1

[69] = molecular target: GlcNAc(a1-4)Gal(b1-3)GlcNAc
How it was run: as §1

[70] = molecular target: GlcNAc(a1-4)Gal(b1-4)GalNAc
How it was run: as §1

[71] = molecular target: GlcNAc(a1-4)Gal(b1-4)GlcNAc
How it was run: as §1

[72] = molecular target: GlcNAc(a1-4)Gal(b1-4)GlcNAc(b1-3)Gal(b1-4)Glc
How it was run: as §1

[73] = molecular target: GlcNAc(a1-4)Gal(b1-4)GlcNAc(b1-3)Gal(b1-4)GlcNAc
How it was run: as §1

[74] = molecular target: GlcNAc(a1-4)Gal(b1-4)GlcNAc(b1-3)Gal(b1-4)GlcNAc(b1-3)Gal(b1-4)GlcNAc
How it was run: as §1

[75] = molecular target: GlcNAc(a1-4)Gal(b1-4)GlcNAc(b1-3)Gal(b1-4)[Fuc(a1-3)]GlcNAc(b1-3)Gal(b1-4)[Fuc(a1-3)]GlcNAc
How it was run: as §1

B1: MGL (Homo sapiens), Q8IUN9 (protein)
chain: MTRTYENFQYLENKVKVQGFKNGPLPLQSLLQRLCSGPCHLLLSLGLGLLLLVIICVVGFQNSKFQRDLVTLRTDFSNFTSNTVAEIQALTSQGSSLEETIASLKAEVEGFKQERQAGVSELQEHTTQKAHLGHCPHCPSVCVPVHSEMLLRVQQLVQDLKKLTCQVATLNNNASTEGTCCPVNWVEHQDSCYWFSHSGMSWAEAEKYCQLKNAHLVVINSREEQNFVQKYLGSAYTWMGLSDPEGAWKWVDGTDYATGFQNWKPGQPDDWQGHGLGGGEDCAHFHPDGRWNDDVCQRPYHWVCEAGLGQTSQESH
glycan array binding signal (z-score) [1]: -0.234 | glycan array binding signal (z-score) [2]: 0.061 | glycan array binding signal (z-score) [3]: -0.243 | glycan array binding signal (z-score) [4]: -0.242 | glycan array binding signal (z-score) [5]: -0.248 | glycan array binding signal (z-score) [6]: -0.238 | glycan array binding signal (z-score) [7]: -0.254 | glycan array binding signal (z-score) [8]: -0.256 | glycan array binding signal (z-score) [9]: 4.14 | glycan array binding signal (z-score) [10]: -0.21 | glycan array binding signal (z-score) [11]: -0.243 | glycan array binding signal (z-score) [12]: -0.254 | glycan array binding signal (z-score) [13]: -0.266 | glycan array binding signal (z-score) [14]: -0.23 | glycan array binding signal (z-score) [15]: -0.641 | glycan array binding signal (z-score) [16]: -0.237 | glycan array binding signal (z-score) [17]: -0.235 | glycan array binding signal (z-score) [18]: -0.239 | glycan array binding signal (z-score) [19]: -0.247 | glycan array binding signal (z-score) [20]: -0.226 | glycan array binding signal (z-score) [21]: -0.237 | glycan array binding signal (z-score) [22]: -0.243 | glycan array binding signal (z-score) [23]: -0.25 | glycan array binding signal (z-score) [24]: -0.235 | glycan array binding signal (z-score) [25]: -0.242 | glycan array binding signal (z-score) [26]: -0.237 | glycan array binding signal (z-score) [27]: -0.239 | glycan array binding signal (z-score) [28]: -0.25 | glycan array binding signal (z-score) [29]: -0.252 | glycan array binding signal (z-score) [30]: -0.314 | glycan array binding signal (z-score) [31]: -0.247 | glycan array binding signal (z-score) [32]: -0.253 | glycan array binding signal (z-score) [33]: -0.242 | glycan array binding signal (z-score) [34]: -0.241 | glycan array binding signal (z-score) [35]: 2.7 | glycan array binding signal (z-score) [36]: 0.346 | glycan array binding signal (z-score) [37]: 0.164 | glycan array binding signal (z-score) [38]: 0.634 | glycan array binding signal (z-score) [39]: 3.3 | glycan array binding signal (z-score) [40]: 0.936 | glycan array binding signal (z-score) [41]: 1.95 | glycan array binding signal (z-score) [42]: 3.77 | glycan array binding signal (z-score) [43]: 1.38 | glycan array binding signal (z-score) [44]: 3.28 | glycan array binding signal (z-score) [45]: -0.229 | glycan array binding signal (z-score) [46]: 1.7 | glycan array binding signal (z-score) [47]: 3.9 | glycan array binding signal (z-score) [48]: 2.3 | glycan array binding signal (z-score) [49]: 3.14 | glycan array binding signal (z-score) [50]: 4.05 | glycan array binding signal (z-score) [51]: -0.251 | glycan array binding signal (z-score) [52]: -0.238 | glycan array binding signal (z-score) [53]: -0.243 | glycan array binding signal (z-score) [54]: -0.24 | glycan array binding signal (z-score) [55]: -0.236 | glycan array binding signal (z-score) [56]: 2.56 | glycan array binding signal (z-score) [57]: -0.247 | glycan array binding signal (z-score) [58]: -0.242 | glycan array binding signal (z-score) [59]: -0.251 | glycan array binding signal (z-score) [60]: -0.246 | glycan array binding signal (z-score) [61]: -0.259 | glycan array binding signal (z-score) [62]: -0.245 | glycan array binding signal (z-score) [63]: -0.247 | glycan array binding signal (z-score) [64]: -0.248 | glycan array binding signal (z-score) [65]: -0.257 | glycan array binding signal (z-score) [66]: -0.245 | glycan array binding signal (z-score) [67]: -0.247 | glycan array binding signal (z-score) [68]: -0.228 | glycan array binding signal (z-score) [69]: -0.252 | glycan array binding signal (z-score) [70]: -0.244 | glycan array binding signal (z-score) [71]: -0.248 | glycan array binding signal (z-score) [72]: -0.247 | glycan array binding signal (z-score) [73]: -0.237 | glycan array binding signal (z-score) [74]: -0.242 | glycan array binding signal (z-score) [75]: -0.23
